# Test results from the RNAGym collection of RNA variant scans (doi:10.7554/elife.90254).
# The source gives no read counts; variants with many changes may rest on few reads.
# B1: LINE1-mini (parent)
# chain: GGCAGAGCUCAACACAGCGUGGCAAAGUGGCUGUGGCUAGACUGCC
# Variants of: B1
# Assay: self-cleavage, relative activity (ratio to wild type); higher = more cleavage; in vitro, sequencing; the parent is a self-cleaving ribozyme
row,Variant,self-cleavage
1,G5A U9A C18U G29A,0.12
2,G5A G29C G40C,0
3,G5C A6U U20C,0.06
4,G5A U9A A26U U38A,0.16
5,G5A U9G A24C G29C C37U,0.02
6,G5A G30U U34A C37G G44C,0.01
7,G5C A12C G17C U28C,0.02
8,G5A G22C C23A A26C U38C A39U C46G,0.03
9,G5C A11G C15U A26U,0.03
10,G5A G29U G33A,0.11
11,G5C A11G G29A G30A G35U,0.02
12,G5A U28C G29A G35A,0.09
13,G5A U9G C13A U28G U34C,0.02
14,G5A G40U C45A C46U,0.04
15,G5A U20A A26U,0.22
16,G5C A11C A12C U20C A25G,0.01
17,G5C A11C C15U C31G,0.02
18,G5C A6C A14C A16G,0.05
19,G5A G36A G40A U43C,0.06
20,G5C A11U C13G A14U G36A C37G U43A,0
21,G5A G29U U43A,0.01

row,Variant,self-cleavage
1,G5A G33C C37G U38A,0.06
2,G5C A6G G21U,0.09
3,G5C A12C G22A,0.04
4,G5C A12C G33A U38G,0.02
5,G5C A6U U34A,0.03
6,G5C A14C C23U C45U,0.07
7,G5A G21A U32G G36A,0.03
8,G5A U43C C45U,0.09
9,G5A U9C G19U,0.02
10,G5A G29U C31A,0.05
11,G5A U9A C15A G27A,0.37
12,G5C A12U C31G C37U G40A,0.03
13,G5C A6G G40U,0.14
14,G5C A12C A14C G21A G22U,0.02
15,G5A U9C G27C,0.03
16,G5A U9G C13A,0.93
17,G5C A14C G30U,0.05
18,G5A U20C U32A U38A,0.03
19,G5A G29U G36U,0.07
20,G5C A6C A11G G33U,0.02
21,G5A G21U G22U U28G C46A,0.1

row,Variant,self-cleavage
1,G5C A12G A39U C45A,0.13
2,G5A G22A C45U,0.39
3,G5A G21U A25U C45A C46U,0.22
4,G5C A12U G19A G36C,0.04
5,G5A G29U G35U C37A A41G,0.22
6,G5A G27C C45A,0.01
7,G5A G22A C31A U38A,0.03
8,G5A G35U G44U C46A,0.07
9,G5A G21U C46U,0.71
10,G5A U9G C18U A41C C42A G44U C45A,0.03
11,G5C A12U A26G C37G,0.02
12,G5A G30U U43C G44C,0.02
13,G5A U9A C15A G22A,0.18
14,G5A U9A A11U G36U,0.01
15,G5C A11U A16U G33C,0.01
16,G5A U28C G33C G36A,0.02
17,G5C A6C G30A C45A,0.22
18,G5A G22C A24C G33C,0.05
19,G5C A11U C13A A24U G33C G36A C42A,0.01
20,G5C A6U U9A A14C U20G G27A U28C C45A,0.05
21,G5A U9A A16C C23A G27A,0.07

row,Variant,self-cleavage
1,G5C A11U C13A G30C U38G G40C,0.01
2,G5A U20G U32A C37U,0.01
3,G5C A6U C13U,0.08
4,G5C A11U A12U C13G A26C,0.03
5,G5C A11C A12G A16G G21C,0.01
6,G5C A11C U28C,0.01
7,G5A U9A C46A,0.39
8,G5A G33A C37G C42G,0.02
9,G5C A11G U43G,0.03
10,G5A G27C U32C A41U C45U,0.02
11,G5C A12C A24G,0.03
12,G5C A6C G22U,0.3
13,G5A U9A G17A G21C C23G A39G C45G,0.08
14,G5A U9G U43A,0.32
15,G5A U20A G36U,0.03
16,G5A U32G G35C A39C,0.26
17,G5A G36A A39G,0.01
18,G5A U9A C23U U34C C46A,0.24
19,G5A U20C A24G G27U,0.15
20,G5C A12C A25C,0.07
21,G5A U20G A24U G33U,0.06
